Test results reported in US20090238791A1 (INSTITUT NATIONAL DE LA SANTE ET DE LA RECHERCHE MEDICALE …, published 2009).

What was measured:
[1] = target: T1, Recombinant human IL-15 (human, UniProt P40933 fragment); experiment: SPR, BIAcore 2000
T1 construct: also called rIL-15; human rIL-15
Procedure: (§1) These experiments were performed with a BIACore 2000 biosensor (BIACore, Uppsala, Sweden). rIL-15 was covalently linked to CM5 sensor chips, and the binding of increasing concentrations of sIL-15Rα-IL-2, sIL-15Rα-sushi-IL-2 or sIL-15Rα-sushi was monitored. Analysis of sensograms was performed using BIAlogue kinetics evaluation software.

[2] = target: T1, Recombinant human IL-15; experiment: SPR, analysis of sensorgrams
T1 sequence (P40933 49-162 limits assumed): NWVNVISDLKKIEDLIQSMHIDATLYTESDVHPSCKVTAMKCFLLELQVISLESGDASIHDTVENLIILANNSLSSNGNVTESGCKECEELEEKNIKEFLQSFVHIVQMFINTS
Procedure: as §1

[3] = target: T1, Recombinant human IL-15; experiment: Competition with 125I-rIL-15 binding to TF-1 cells
Procedure: Labeling with [¹²⁵I]-iodine of human rIL-15, sIL-15Rα-sushi and RLI fusion protein, and subsequent binding experiments were performed as described previously (19). For internalization, cells were equilibrated at 4° C. with labeled sIL-15Rα-sushi or RLI, and the temperature switched to 37° C. At different time intervals, two samples were washed and centrifuged. One of the cell pellets was treated with glycine-HCl buffer 0.2 M, pH 2.5, whereas the other was treated with PBS pH 7.4 at 4° C. for 5 min. After centrifugation, total ligand binding was determined from the pellet of the cells treated with PBS, whereas the membrane bound and internalized fractions were determined respectively from the supernatant and pellet of cells treated with acid pH.
The three soluble forms of IL-15Rα were tested for their ability to compete out the binding of radio-iodinated IL-15 to IL-15Rα expressed by the human cell line TF-1 which also expresses the IL-15Rγ chain, but not the IL-15Rβ chain (FIG. 1D).

Kd [1]: 0.42 nM | fold lower affinity than sIL-15Rα-IL-2 [1]: 10 fold | koff [1]: 0.00013 s⁻¹ | kon [1]: 310000 M⁻¹ s⁻¹ | Kd [2]: 0.428 nM | fold decrease of affinity against sIL-15Rα-IL-2 [3]: 3.5 fold
B1: sIL-15Rα-sushi-IL-2 (receptor)
chain: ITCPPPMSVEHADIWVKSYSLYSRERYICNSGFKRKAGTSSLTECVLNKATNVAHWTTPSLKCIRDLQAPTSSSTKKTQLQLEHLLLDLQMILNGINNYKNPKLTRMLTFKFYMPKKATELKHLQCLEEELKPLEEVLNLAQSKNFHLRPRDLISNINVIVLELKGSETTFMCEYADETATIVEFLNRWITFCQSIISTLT
notes: The signal peptide is left out; also called Sushi15-IL-2

Kd [1]: 0.038 nM | koff [1]: 1.4e-05 s⁻¹ | kon [1]: 370000 M⁻¹ s⁻¹
B2: sIL-15Rα-IL-2 fusion protein (receptor)
chain: ITCPPPMSVEHADIWVKSYSLYSRERYICNSGFKRKAGTSSLTECVLNKATNVAHWTTPSLKCIRDPALVHQRPAPPSTVTTAGVTPQPESLSPSGKEPAASSPSSNNTAATTPAIVPGSQLMPSKSPSTGTTEISSHESSHGTPSQTTAKNWELTAPASHQPPGVYPQGHSDTTLQ[no letters for about 150 residues]
notes: Its first 30 residues are the IL-15Rα signal peptide, which is not part of the secreted protein; also called sIL-15R-IL-2; full length soluble IL-15Rα

Each block holds one binder with its values, some of them ahead of it.
